Here are results for 2 molecules from paper PMC3162478 (Nature, 2011).

The experiment addresses T1, FimD usher, full-length (undigested), with C-terminal Strep-tag II (Escherichia coli, UniProt P30130 46-878).
T1 sequence: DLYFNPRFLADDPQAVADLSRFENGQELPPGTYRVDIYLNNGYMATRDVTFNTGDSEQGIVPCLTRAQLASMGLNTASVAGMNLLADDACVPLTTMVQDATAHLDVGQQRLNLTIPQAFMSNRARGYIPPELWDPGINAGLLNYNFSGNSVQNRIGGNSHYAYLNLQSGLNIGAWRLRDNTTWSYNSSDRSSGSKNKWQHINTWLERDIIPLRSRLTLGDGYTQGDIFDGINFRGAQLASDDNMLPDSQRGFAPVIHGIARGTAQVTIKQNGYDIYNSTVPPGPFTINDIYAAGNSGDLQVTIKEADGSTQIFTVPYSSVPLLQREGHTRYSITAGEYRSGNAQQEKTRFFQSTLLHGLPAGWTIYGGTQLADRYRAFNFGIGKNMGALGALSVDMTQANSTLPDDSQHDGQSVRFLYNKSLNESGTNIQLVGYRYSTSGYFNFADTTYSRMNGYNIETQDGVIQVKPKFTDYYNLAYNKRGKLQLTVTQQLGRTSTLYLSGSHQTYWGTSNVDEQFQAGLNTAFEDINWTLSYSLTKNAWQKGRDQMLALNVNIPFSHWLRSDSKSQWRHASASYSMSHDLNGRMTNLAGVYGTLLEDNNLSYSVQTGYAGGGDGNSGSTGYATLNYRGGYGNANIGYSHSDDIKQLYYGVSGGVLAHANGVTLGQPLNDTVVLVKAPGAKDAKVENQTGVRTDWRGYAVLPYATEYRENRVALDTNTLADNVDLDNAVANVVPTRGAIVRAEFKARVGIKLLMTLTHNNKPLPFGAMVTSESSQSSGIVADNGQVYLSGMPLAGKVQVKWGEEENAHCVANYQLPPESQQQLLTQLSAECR
The experiment in a line: AUC.

B1: FimH adhesin (natural protein)
chain: not shown
On to B1, for which the “stoichiometry N” value turned out to be 1.

B2: FimC:FimH chaperone:adhesin complex (complex)
chain 1: GVALGATRVIYPAGQKQEQLAVTNNDENSTYLIQSWVENADGVKDGRFIVTPPLFAMKGKKENTLRILDATNNQLPQDRESLFWMNVKAIPSMDKSKLTENTLQLAIISRIKLYYRPAKLALPPDQAAEKLRFRRSANSLTLINPTPYYLTVTELNAGTRVLENALVPPMGESTVKLPSDAGSNITYRTINDYGALTPKMTGVME
chain 2: [letters of about 300 residues left out]
As for B2, the “stoichiometry N” value was 1.
